In PubChem BioAssay AID504339 (National Center for Advancing Translational Sciences (NCATS), 2011):
Among all 390,000 compounds or so, about 17,000 (4.4%) were called active. Inconclusive results, whose numbers are uncertain, are shown with a selection of clear calls. Calls follow the shape of the dose curve; as a rule, active = well fitted inhibition curve with a large enough effect; inconclusive = small, poorly fitted or top-dose-only effect; inactive = no such curve, though single readings can be large or run the other way. Potencies beside an inconclusive call are fits to weak or partial responses and may not hold up.
Also: nearly all actives have a fitted effect of over 50% in size.
Potency is read from the fitted curve at half-maximal effect; tags tell the direction and shape of the fitted curve.

The molecules below were run against Lysine-specific demethylase 4A (Homo sapiens) (UniProt O75164) (assay: qHTS Assay for Inhibitors of JMJD2A-Tudor Domain). Conditions: AlphaScreen JMJD2A-Tudor / H3K4me3 peptide binding; series mostly up to 114 µM.
UniProt O75164, sequence (O75164 whole entry, looked up, the tested form may be a part): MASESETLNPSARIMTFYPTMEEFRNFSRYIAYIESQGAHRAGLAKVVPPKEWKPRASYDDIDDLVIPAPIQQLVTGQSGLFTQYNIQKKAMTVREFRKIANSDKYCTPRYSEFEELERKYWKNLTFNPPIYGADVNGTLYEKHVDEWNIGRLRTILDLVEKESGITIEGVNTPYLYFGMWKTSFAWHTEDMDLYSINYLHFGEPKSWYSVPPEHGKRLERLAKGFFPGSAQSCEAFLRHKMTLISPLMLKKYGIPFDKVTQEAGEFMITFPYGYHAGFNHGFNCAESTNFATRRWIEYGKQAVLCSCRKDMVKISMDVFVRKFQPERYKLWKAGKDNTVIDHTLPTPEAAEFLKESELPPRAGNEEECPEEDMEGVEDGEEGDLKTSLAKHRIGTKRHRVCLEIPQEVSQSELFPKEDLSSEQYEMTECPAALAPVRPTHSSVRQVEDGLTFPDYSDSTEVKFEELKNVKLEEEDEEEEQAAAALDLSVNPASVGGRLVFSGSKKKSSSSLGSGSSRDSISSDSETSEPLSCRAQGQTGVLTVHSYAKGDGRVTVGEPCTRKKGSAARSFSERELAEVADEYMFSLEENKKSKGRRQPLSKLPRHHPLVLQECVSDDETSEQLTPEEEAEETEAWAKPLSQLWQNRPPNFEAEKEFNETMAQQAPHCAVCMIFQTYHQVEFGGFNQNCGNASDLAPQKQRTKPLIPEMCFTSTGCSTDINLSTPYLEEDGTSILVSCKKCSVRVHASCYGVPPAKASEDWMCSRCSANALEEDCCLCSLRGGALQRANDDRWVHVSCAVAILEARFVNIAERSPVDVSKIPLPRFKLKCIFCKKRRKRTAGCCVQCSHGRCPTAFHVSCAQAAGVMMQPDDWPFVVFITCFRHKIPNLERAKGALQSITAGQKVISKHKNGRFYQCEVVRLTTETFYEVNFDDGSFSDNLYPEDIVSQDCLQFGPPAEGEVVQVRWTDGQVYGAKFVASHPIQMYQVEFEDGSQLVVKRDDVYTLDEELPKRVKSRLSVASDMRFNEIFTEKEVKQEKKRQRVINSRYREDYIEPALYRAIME
In the case of `O=C1CCC(=O)N1c1nc2nc(-c3ccccc3)cc(=O)n2[nH]1`, the Potency is reported as inconclusive: 89.1 µM [inhibitor, single point]. `CCN(CC)CCOc1ccc(/C(=C(\Cl)c2ccccc2)c2ccccc2)cc1` was tested, and the Potency was active: 31.6 µM. In the case of `CCC(=O)Nc1sc2c(c1C#N)CCC2`, the Potency is reported as active: 89.1 µM. `COc1cc(OC)c(NC2c3ccccc3C(=O)N2c2cc(C)ccn2)cc1Cl` (stereo not given) was tested, and the Potency was inconclusive: 56.2 µM [inhibitor, partial curve]. For `C[C@H]1CN([C@@H](C)CO)C(=O)Cc2cc(NC(=O)Nc3ccccc3)ccc2O[C@H]1CN(C)Cc1ccccc1`, the Potency was inconclusive: 28.2 µM [inhibitor, partial curve]. In the case of `O=C(COC(=O)/C=C/c1ccco1)Nc1ncc(Cl)cc1Cl`, the Potency is reported as inconclusive: 50.1 µM [inhibitor, partial curve]. In the case of `COc1ccc(S(=O)(=O)N2CCN(C3CC4CCC3C4)CC2)cc1` (stereo not given), the Potency is reported as active: 3.16 µM. With `S=C(NCc1ccncc1)NC1CCCC1` the Potency was “inactive”. In the case of `COCC(C)n1c(C)cc(C(=O)COC(=O)c2cnc(Cl)c(Cl)c2)c1C` (stereo not given), the Potency is reported as inconclusive: 79.4 µM [inhibitor, partial curve]. `CCN(CCCNC(=O)c1cc2cc3cc(C)ccc3nc2s1)c1cccc(C)c1` was tested, and the Potency was inconclusive: 20 µM [inhibitor, full curve]. In the case of `Cc1nc(SCC(=O)O)c2oc3ccccc3c2n1`, the Potency is reported as “inactive”. `O=C(CN1C(=O)S/C(=C\c2ccc(O)c([N+](=O)[O-])c2)C1=O)Nc1ccc(N2CCOCC2)cc1` was tested, and the Potency was active: 56.2 µM. With `O=C(Nc1cc(Cl)ccc1N1CCOCC1)c1cccnc1Cl` the Potency was “inactive”. With `O=C(O)c1n[nH]c2ccccc12` the Potency was active: 28.2 µM. With `O=C(CSc1nc2ccccc2o1)Nc1nc2c(s1)CCCC2` the Potency was inconclusive: 50.1 µM [inhibitor, partial curve]. In the case of `O=C(O)CN1C(=O)CC(Cc2ccc(Cl)cc2)C1=O` (stereo not given), the Potency is reported as “inactive”. `CC(C)(C)C(=O)Nc1ccc2nc(SCC(=O)N3CCCC3)sc2c1` was tested, and the Potency was “inactive”. `COc1ccc(C(=O)NC(=S)NNC(=O)CNC(=O)C2CCCCC2)cc1` was tested, and the Potency was inconclusive: 89.1 µM [inhibitor, single point]. In the case of `CSc1cccc(NC(=O)Cn2cccc2)c1`, the Potency is reported as inconclusive: 63.1 µM [inhibitor, partial curve]. In the case of `CCOc1ccc(OCC)c(NC(=O)CCn2cccc2)c1`, the Potency is reported as inconclusive: 56.2 µM [inhibitor, partial curve]. `COc1cccc(CNC(=O)CCc2c(C)c3cc4c(C)c(C)oc4cc3oc2=O)c1` was tested, and the Potency was “inactive”. `CCC(NC(=O)CCl)c1ccc(C)cc1` (stereo not given) was tested, and the Potency was active: 56.2 µM. `Cc1ccc(CNC(=O)C23CN(Cc4ccccc4)CC2C(c2cccc([N+](=O)[O-])c2)=NO3)cc1` (stereo not given) was tested, and the Potency was inconclusive: 10 µM [inhibitor, partial curve]. With `Nc1c(C(=O)NC2CC2)sc2nc3c(c(-c4ccco4)c12)CC/C3=C/c1ccco1` the Potency was active: 7.08 µM. `CCCCC(=O)Nc1ncc([N+](=O)[O-])s1` was tested, and the Potency was “inactive”. In the case of `CC(=O)N1c2ccc(S(=O)(=O)N3CCC(C(=O)NCc4ccc(Cl)cc4)CC3)cc2CC1C` (stereo not given), the Potency is reported as inconclusive: 15.8 µM [inhibitor, full curve, poor fit]. In the case of `OC1(c2ccc(F)cc2)CN(c2ccccc2)C2=[N+]1CCS2` (stereo not given), the Potency is reported as inconclusive: 25.1 µM [inhibitor, single point]. With `CCOc1c(Cl)cc(CNCc2ccncc2)cc1OC` the Potency was “inactive”. For `COc1cccc(-c2csc(NNC(=O)c3cccs3)n2)c1`, the Potency was inconclusive: 89.1 µM [inhibitor, partial curve]. `COc1cc(NC(=O)c2cc3c(=O)oc4ccc(C)cc4c3s2)cc(OC)c1OC` was tested, and the Potency was “inactive”. With `O=C(Oc1ccc(C(=S)N2CCOCC2)cc1)c1ccc(F)cc1` the Potency was inconclusive: 89.1 µM [inhibitor, single point]. `CCCCN1C(=O)NC2NC(=O)NC21` (stereo not given) was tested, and the Potency was inconclusive: 79.4 µM [inhibitor, partial curve]. With `COc1ccccc1-c1oc2ccccc2c1C#CCCO` the Potency was inconclusive: 89.1 µM [inhibitor, single point]. With `Cc1c(C)c2c(OCC(=O)NCc3cccnc3)cc3c(c2oc1=O)CCC(C)(C)O3` the Potency was inconclusive: 31.6 µM [inhibitor, single point]. For `COC(=O)c1ccc(CSc2nc3scc(-c4cccs4)c3c(=O)[nH]2)o1`, the Potency was active: 44.7 µM. For `O=C(CCSCc1ccc(Cl)cc1)NCc1ccco1`, the Potency was “inactive”. For `COc1ccc(Nc2cc(C)nc(NCc3ccccc3)n2)cc1`, the Potency was inconclusive: 44.7 µM [inhibitor, partial curve]. For `O=C1NC(=S)S/C1=C\c1cc(Cl)cc(Cl)c1O`, the Potency was active: 39.8 µM. With `O=C(CCn1cccc1)N1CCc2ccccc21` the Potency was inconclusive: 56.2 µM [inhibitor, partial curve]. With `CCOc1ccc(/C=C2\SC(=S)N(Nc3ccccc3)C2=O)cc1OC` the Potency was inconclusive: 8.91 µM [inhibitor, full curve]. In the case of `CC(=O)Cc1nsc(NC(=O)c2ccc(-c3ccccc3Cl)o2)n1`, the Potency is reported as inconclusive: 28.2 µM [inhibitor, partial curve]. `COc1ccc(NC(=O)CSc2nc3c(c(=O)n(C)c(=O)n3C)n2C)c(OC)c1` was tested, and the Potency was inconclusive: 63.1 µM [inhibitor, partial curve]. For `O=C(Nc1cccc(-c2cn3ccccc3n2)c1)c1cnccn1`, the Potency was inconclusive: 79.4 µM [inhibitor, single point]. `COc1cccc(-n2c(CN3CCN(c4cccc(C)c4)C(C)C3)nc3ccc([N+](=O)[O-])cc3c2=O)c1` (stereo not given) was tested, and the Potency was inconclusive: 14.1 µM [inhibitor, full curve]. With `O=C1NC(=S)N/C1=C/c1cccc([N+](=O)[O-])c1` the Potency was “inactive”. With `NC(=S)NN=C1Cc2cccc3cccc1c23` the Potency was “inactive”. In the case of `CCS(=O)(=O)C1=NN2C(=N)/C(=C\c3ccc(OC(=O)c4ccco4)c(OC)c3)C(=O)N=C2S1`, the Potency is reported as inconclusive: 56.2 µM [inhibitor, partial curve]. With `CC1(C)c2ssc(=S)c2-c2ccccc2N1C(=O)CSC1=NCCS1` the Potency was active: 8.91 µM. For `COc1ccc(NC(=O)CC2C(=O)N(c3ccc(C)cc3)C(=O)N2CCc2ccccc2)cc1` (stereo not given), the Potency was “inactive”. With `COCCC1CCCCN1C(=O)c1ccc2nc(Cc3ccccc3F)oc2c1` (stereo not given) the Potency was “inactive”. With `CC(C)c1cc(C(=O)N/N=C/C(Br)=C/c2ccccc2)n[nH]1` the Potency was inconclusive: 50.1 µM [inhibitor, partial curve]. With `O=[N+]([O-])c1ccccc1/C=N/Nc1nccnc1Cl` the Potency was inconclusive: 100 µM [inhibitor, partial curve, poor fit]. With `Cn1c(=O)n(-c2ccc(Cl)cc2)c(=O)c2c3c(sc21)COC(C)(C)C3` the Potency was “inactive”. `Cc1c(Cl)cccc1Nc1sc(C(=O)c2ccccc2)c(N)c1S(=O)(=O)c1ccccc1` was tested, and the Potency was inconclusive: 15.8 µM [inhibitor, full curve, poor fit]. For `CC(=O)Cn1nnc2sc(-c3ccccc3)cc2c1=O`, the Potency was inconclusive: 56.2 µM [inhibitor, partial curve, poor fit]. In the case of `CCN(CC)CC(=O)Nc1ccc2c(c1)Nc1ccccc1CC2`, the Potency is reported as inconclusive: 50.1 µM [inhibitor, partial curve]. `Oc1c(C2=NCCNC(C(F)(F)F)=C2)ccc2ccccc12` was tested, and the Potency was active: 50.1 µM. For `O=C(CN(c1ccc(Cl)cc1)S(=O)(=O)c1ccccc1)N1CCN(c2ccccc2)CC1`, the Potency was inconclusive: 20 µM [inhibitor, full curve, poor fit]. For `N#Cc1nc(COc2ccccc2)oc1N1CCCCCC1`, the Potency was inconclusive: 79.4 µM [inhibitor, partial curve]. For `Cc1cc(C(=O)N/N=C/c2c(C)[nH]n(-c3ccccc3)c2=O)n[nH]1`, the Potency was active: 50.1 µM. In the case of `Cc1cc(=O)[nH]c(SCC(=O)NNC(=O)Cc2ccccc2)n1`, the Potency is reported as “inactive”. In the case of `Cc1ccc(-c2cc(C(=O)N3CCN(c4ccc(F)cc4)CC3)c3ccccc3n2)o1`, the Potency is reported as active: 56.2 µM. In the case of `O=C(NNS(=O)(=O)c1ccccc1)c1cccc([N+](=O)[O-])c1`, the Potency is reported as active: 12.6 µM. In the case of `Cc1cc(C)n2nc(CC(=O)NCc3ccccc3Cl)nc2n1`, the Potency is reported as “inactive”. With `O=C1O/C(=C\c2ccccc2)c2ccccc21` the Potency was “inactive”. For `O=C1CCCC(O)=C1N=Nc1ccc2ncsc2c1`, the Potency was inconclusive: 31.6 µM [inhibitor, partial curve]. With `CCOC(=O)c1ccc2c(c1)N(Cc1cccc([N+](=O)[O-])c1)C(=O)c1ccccc1S2` the Potency was “inactive”. With `COc1ccc2cc(S(=O)(=O)N3CCCCCC3)ccc2c1` the Potency was “inactive”. In the case of `N=c1n(Cc2ccc(Cl)cc2)c2ccccc2n1CC(O)COc1ccccc1` (stereo not given), the Potency is reported as inconclusive: 39.8 µM [inhibitor, full curve, poor fit]. `CCOC(=O)c1[nH]c(=O)[nH]c1COC(=O)c1cc2ccccc2o1` was tested, and the Potency was inconclusive: 100 µM [inhibitor, single point]. `CCc1cccc(CC)c1NC(=O)c1cc(S(=O)(=O)N2CCc3ccccc32)cn1C` was tested, and the Potency was inconclusive: 20 µM [inhibitor, full curve]. For `Clc1cc(Br)ccc1OCCOCCN1CCOCC1`, the Potency was active: 7.08 µM. In the case of `CCn1c(C(=O)NCCCN2CCc3ccccc3C2)cc2sccc21`, the Potency is reported as inconclusive: 39.8 µM [inhibitor, partial curve]. With `CCCOC(=O)C1=C(C)NC2=C(C(=O)CC(C)(C)C2)C1c1ccc(N(C)C)cc1` (stereo not given) the Potency was inconclusive: 50.1 µM [inhibitor, partial curve, poor fit]. With `CC(=O)Nc1cccc(-c2nn[nH]n2)c1` the Potency was inconclusive: 56.2 µM [inhibitor, partial curve].
